# Experimental data taken from the supplement of paper PMC8728848.
# Some of the results follow.
# B1: LgFlo1 (Saccharomyces pastorianus), B3IUA8 (protein)
# chain: SGSTQACLPVGSRKNGMNVNFYKYSLQDSTTYSDPQYMAYKYSDTKKLGSVSGQTHLSIYYGPNTAFWNTASWSSDLFGFYTTPTNVTVEMTGYFLPPQTGSYTFKFATVDDSAILSVGGSIAFECCAQEQPPITSTDFTINGIKPWDAATPTDIKGSTYMYAGYYYPIKIVYSNAKALARLPVSVVLPDGTEVNDDFEGYVYSFDDDLSQSNCTIPDPSKHTTS
# Tests used:
# Assay in all cases: glycan array binding signal (z-score within array); higher = stronger binding
# Settings in all cases: glycan notation: IUPAC condensed, linker removed
# [1] = target: GlcNAc(b1-4)GlcNAc(b1-4)GlcNAc(b1-4)GlcNAc(b1-4)GlcNAc
# Method in brief: (§1)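 The Consortium for Functional Glycomics database supplied 3228 glycan arrays, of which those lacking an available protein sequence were dropped. The binding signal, a within-array Z-score, was averaged across arrays of the same protein sequence and across linkers. Negative scores can be read as non-binding.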
# [2] = target: GlcNAc(b1-4)GlcNAc(b1-4)GlcNAc(b1-4)GlcNAc(b1-4)GlcNAc(b1-4)GlcNAc
# Method in brief: as §1
# [3] = target: GlcNAc(b1-4)[GlcNAc(b1-6)]GalNAc
# Method in brief: as §1
# [4] = target: GlcNAc(b1-6)Gal(b1-4)GlcNAc
# Method in brief: as §1
# [5] = target: GlcNAc(b1-6)GalNAc
# Method in brief: as §1
# [6] = target: GlcNAc6S(b1-3)Gal(b1-4)GlcNAc
# Method in brief: as §1
# [7] = target: Kdn(a2-3)Gal(b1-3)GalNAc
# Method in brief: as §1
# [8] = target: Kdn(a2-3)Gal(b1-3)GlcNAc
# Method in brief: as §1
# [9] = target: Kdn(a2-3)Gal(b1-4)Glc
# Method in brief: as §1
# [10] = target: Kdn(a2-3)Gal(b1-4)GlcNAc
# Method in brief: as §1
# [11] = target: Kdn(a2-3)Gal(b1-4)[Fuc(a1-3)]GlcNAc
# Method in brief: as §1
# [12] = target: Kdn(a2-6)Gal(b1-4)GlcNAc
# Method in brief: as §1
# [13] = target: Man(a1-2)Man(a1-2)Man(a1-3)Man
# Method in brief: as §1
# [14] = target: Man(a1-2)Man(a1-2)Man(a1-6)[Man(a1-3)]Man
# Method in brief: as §1
# [15] = target: Man(a1-2)Man(a1-3)Man
# Method in brief: as §1
# [16] = target: Man(a1-2)Man(a1-3)[Man(a1-2)Man(a1-6)]Man
# Method in brief: as §1
# [17] = target: Man(a1-2)Man(a1-3)[Man(a1-2)Man(a1-6)]Man(a1-6)[Man(a1-2)Man(a1-2)Man(a1-3)]Man
# Method in brief: as §1
# [18] = target: Man(a1-2)Man(a1-3)[Man(a1-2)Man(a1-6)]Man(a1-6)[Man(a1-2)Man(a1-2)Man(a1-3)]Man(b1-4)GlcNAc(b1-4)GlcNAc
# Method in brief: as §1
# [19] = target: Man(a1-2)Man(a1-3)[Man(a1-6)]Man(a1-6)[Man(a1-2)Man(a1-3)]Man(b1-4)GlcNAc(b1-4)GlcNAc
# Method in brief: as §1
# [20] = target: Man(a1-2)Man(a1-6)[Man(a1-3)]Man(a1-6)[Man(a1-2)Man(a1-2)Man(a1-3)]Man
# Method in brief: as §1
# [21] = target: Man(a1-2)Man(a1-6)[Man(a1-3)]Man(a1-6)[Man(a1-2)Man(a1-2)Man(a1-3)]Man(b1-4)GlcNAc(b1-4)GlcNAc
# Method in brief: as §1
# [22] = target: Man(a1-3)[Man(a1-6)]Man
# Method in brief: as §1
# [23] = target: Man(a1-3)[Man(a1-6)]Man(a1-6)[Man(a1-2)Man(a1-3)]Man(b1-4)GlcNAc(b1-4)GlcNAc
# Method in brief: as §1
# [24] = target: Man(a1-3)[Man(a1-6)]Man(a1-6)[Man(a1-3)]Man
# Method in brief: as §1
# [25] = target: Man(a1-3)[Man(a1-6)]Man(a1-6)[Man(a1-3)]Man(b1-4)GlcNAc(b1-4)GlcNAc
# Method in brief: as §1
# [26] = target: Man(a1-3)[Man(a1-6)]Man(b1-4)GlcNAc(b1-4)GlcNAc
# Method in brief: as §1
# [27] = target: Man(a1-3)[Man(a1-6)]Man(b1-4)GlcNAc(b1-4)[Fuc(a1-6)]GlcNAc
# Method in brief: as §1
# [28] = target: Man(a1-6)Man
# Method in brief: as §1
# [29] = target: Man(b1-4)GlcNAc
# Method in brief: as §1
# [30] = target: MurNAc(b1-4)GlcNAc
# Method in brief: as §1
# [31] = target: Neu5Ac(a2-3)Gal
# Method in brief: as §1
# [32] = target: Neu5Ac(a2-3)Gal(b1-3)GalNAc
# Method in brief: as §1
# [33] = target: Neu5Ac(a2-3)Gal(b1-3)GalNAc(b1-3)Gal(a1-4)Gal(b1-4)Glc
# Method in brief: as §1
# [34] = target: Neu5Ac(a2-3)Gal(b1-3)GalNAc(b1-4)Gal(b1-4)Glc
# Method in brief: as §1
# [35] = target: Neu5Ac(a2-3)Gal(b1-3)GalNAc(b1-4)[Neu5Ac(a2-3)]Gal(b1-4)Glc
# Method in brief: as §1
# [36] = target: Neu5Ac(a2-3)Gal(b1-3)GalNAc(b1-4)[Neu5Ac(a2-8)Neu5Ac(a2-3)]Gal(b1-4)Glc
# Method in brief: as §1
# [37] = target: Neu5Ac(a2-3)Gal(b1-3)GalNAc6S
# Method in brief: as §1
# [38] = target: Neu5Ac(a2-3)Gal(b1-3)GlcNAc
# Method in brief: as §1
# [39] = target: Neu5Ac(a2-3)Gal(b1-3)GlcNAc(b1-2)Man
# Method in brief: as §1
# [40] = target: Neu5Ac(a2-3)Gal(b1-3)GlcNAc(b1-2)Man(a1-3)[GlcNAc(b1-4)][Neu5Ac(a2-3)Gal(b1-3)GlcNAc(b1-2)Man(a1-6)]Man(b1-4)GlcNAc(b1-4)GlcNAc
# Method in brief: as §1
# [41] = target: Neu5Ac(a2-3)Gal(b1-3)GlcNAc(b1-2)Man(a1-3)[Neu5Ac(a2-3)Gal(b1-3)GlcNAc(b1-2)Man(a1-6)]Man(b1-4)GlcNAc(b1-4)GlcNAc
# Method in brief: as §1
# [42] = target: Neu5Ac(a2-3)Gal(b1-3)GlcNAc(b1-2)[Neu5Ac(a2-3)Gal(b1-3)GlcNAc(b1-4)]Man(a1-6)[Neu5Ac(a2-3)Gal(b1-3)GlcNAc(b1-2)Man(a1-3)]Man(b1-4)GlcNAc(b1-4)GlcNAc
# Method in brief: as §1
# [43] = target: Neu5Ac(a2-3)Gal(b1-3)GlcNAc(b1-3)Gal(b1-3)GlcNAc
# Method in brief: as §1
# [44] = target: Neu5Ac(a2-3)Gal(b1-3)GlcNAc(b1-3)Gal(b1-4)GlcNAc
# Method in brief: as §1
# [45] = target: Neu5Ac(a2-3)Gal(b1-3)GlcNAc(b1-3)GalNAc
# Method in brief: as §1
binder,measurement,setting,value
B1,glycan array binding signal (z-score),[1],-0.419
same,glycan array binding signal (z-score),[2],-0.261
same,glycan array binding signal (z-score),[3],-0.359
same,glycan array binding signal (z-score),[4],-0.436
same,glycan array binding signal (z-score),[5],-0.336
same,glycan array binding signal (z-score),[6],-0.317
same,glycan array binding signal (z-score),[7],-0.379
same,glycan array binding signal (z-score),[8],0.066
same,glycan array binding signal (z-score),[9],-0.235
same,glycan array binding signal (z-score),[10],-0.143
same,glycan array binding signal (z-score),[11],-0.332
same,glycan array binding signal (z-score),[12],-0.359
same,glycan array binding signal (z-score),[13],0.282
same,glycan array binding signal (z-score),[14],-0.307
same,glycan array binding signal (z-score),[15],-0.013
same,glycan array binding signal (z-score),[16],-0.012
same,glycan array binding signal (z-score),[17],0.04
same,glycan array binding signal (z-score),[18],-0.336
same,glycan array binding signal (z-score),[19],-0.305
same,glycan array binding signal (z-score),[20],-0.222
same,glycan array binding signal (z-score),[21],0.068
same,glycan array binding signal (z-score),[22],-0.203
same,glycan array binding signal (z-score),[23],-0.347
same,glycan array binding signal (z-score),[24],-0.267
same,glycan array binding signal (z-score),[25],-0.404
same,glycan array binding signal (z-score),[26],-0.216
same,glycan array binding signal (z-score),[27],0.154
same,glycan array binding signal (z-score),[28],-0.278
same,glycan array binding signal (z-score),[29],-0.318
same,glycan array binding signal (z-score),[30],-0.303
same,glycan array binding signal (z-score),[31],-0.003
same,glycan array binding signal (z-score),[32],5.83
same,glycan array binding signal (z-score),[33],-0.329
same,glycan array binding signal (z-score),[34],-0.133
same,glycan array binding signal (z-score),[35],-0.34
same,glycan array binding signal (z-score),[36],0.381
same,glycan array binding signal (z-score),[37],-0.132
same,glycan array binding signal (z-score),[38],-0.366
same,glycan array binding signal (z-score),[39],-0.279
same,glycan array binding signal (z-score),[40],-0.135
same,glycan array binding signal (z-score),[41],-0.243
same,glycan array binding signal (z-score),[42],0.374
same,glycan array binding signal (z-score),[43],-0.588
same,glycan array binding signal (z-score),[44],-0.241
same,glycan array binding signal (z-score),[45],-0.13
